Some of the results follow.

The assay has as its system PfHDP1 homeodomain (GST-tagged). Description: gcPBM binding intensity (ln(normalized median fluorescence intensity)); higher = stronger DNA binding. In a few lines: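 DNA-binding domains from P. falciparum, fused to GST and produced in E. coli, were put on an Agilent 4 × 180k double-stranded probe array for 1 h in 1× PBS holding 1% milk, 0.2 mg/ml BSA, 0.5% salmon testes DNA and 0.03% Triton X-100. Probes were primer-extended, 36 bp long and drawn from intergenic genomic regions, with negative controls included. After Alexa488 anti-GST antibody detection and a 488 nm scan, binding intensity was set as the highest Masliner-normalised natural-log median intensity across replicate spots of either probe orientation.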
As to TTTAATAATATTTAGGTGCTATATATTATATGTATA, the “gcPBM binding intensity (ln)” value was 6.33.

With “CGTATGACATAATATTGTACTTTTGATATACATCAT [XGTACX_site7366]”, the “gcPBM binding intensity (ln)” value was 6.3.

Take “ATAATTAAAAAAGGAATATATATATATATATATATA [GTGCAC_negctrl_site343]”: the “gcPBM binding intensity (ln)” value stood at 9.48.

“AAACAAAAAAGAAACACACACTAATTAAATTTTCTT [CACACA_site4746]”: the “gcPBM binding intensity (ln)” value stood at 6.33.

Take TATATTTTTTTTCTAGTGCATATTATTAATTAAGTT: the “gcPBM binding intensity (ln)” value was 8.71.

As to “TGAGTATTTTTTTAATGTACTTATATTAAAAGGAAA [XGTACX_site6286]”, the “gcPBM binding intensity (ln)” value was found to be 6.32.

For the sequence “AAAATATTATTTTGTTGTACATATAAAATTTTAAGC [XGTACX_site1866]”, the “gcPBM binding intensity (ln)” value came to 6.78.

For “TACAAAATAAGACATGCATGTTATACATATATATTT [TGCATGCA_site321]”, the “gcPBM binding intensity (ln)” value turned out to be 6.84.

In the case of “TTTATTTTGTAGTGTACACATATATATATATATATA [CACACA_site5843]”, the “gcPBM binding intensity (ln)” value is 9.42.

With “TATATATGGAAAAGGTGTACATTCAATATATATATA [XGTACX_site3167]”, the “gcPBM binding intensity (ln)” value amounted to 8.63.

Turning to “TATGTCAAAAAATAATGTACAAAAAAATTAACATAA [XGTACX_site5463]”, the “gcPBM binding intensity (ln)” value amounted to 6.38.

With “ATATAAAATAGACACGCACACAAAAAAAAAAAAAAA [CACACA_site3522]”, the “gcPBM binding intensity (ln)” value came out at 6.55.

In the case of “CTATAATATAGGTATACACACATATTATAGAATATT [CACACA_site7696]”, the “gcPBM binding intensity (ln)” value was found to be 6.2.

For the sequence “ATTTTAGAATTTAATACACACAAAAAAAAAAAATTA [CACACA_site3704]”, the “gcPBM binding intensity (ln)” value was 6.45.

Consider “TATTACATTATATAAACATGCAAAACTATATATTAT [TGCATGCA_site601]”, for which the “gcPBM binding intensity (ln)” value came out at 6.7.

Turning to “AAAAATTTATTTAAAAGTACATAAAATAAAGGTGGA [XGTACX_site7591]”, the “gcPBM binding intensity (ln)” value worked out at 7.21.

For the sequence ACTTTAGAAATAGAGGTGCTATTTTTATTACCACAC, the “gcPBM binding intensity (ln)” value was found to be 6.54.

For the sequence “ATATATGTAGATATATGTACATATATAGGTAGATAT [XGTACX_site7589]”, the “gcPBM binding intensity (ln)” value came out at 7.39.

“TTTATTAAAATATTCTCACACACCAAAATATGTATG [CACACA_site932]”: the “gcPBM binding intensity (ln)” value stood at 6.42.

As to “ATAAAATAACACAACGTTGACAAATTTGGATGACTC [XGTACX_negctrl_site324]”, the “gcPBM binding intensity (ln)” value stood at 7.16.

Take “AAAATAATAAAAAGGGGTACAAAGAAACAAATATAA [XGTACX_site296]”: the “gcPBM binding intensity (ln)” value came out at 6.69.

“AAGGAAAAGTAAAGAAGTACTGTACCGCCAAAAAAA [XGTACX_site2607]”: the “gcPBM binding intensity (ln)” value turned out to be 6.71.

Regarding “TTGATGTTGGTAGGATGTACGGTACCGGTAGTATTT [XGTACX_site6642]”, the “gcPBM binding intensity (ln)” value came out at 6.62.

Take “AATTTATTTTTTTGATGTACATACAATTTATCACAA [XGTACX_site5936]”: the “gcPBM binding intensity (ln)” value was determined as 6.74.

On to “TATGTGCATATAAACTCACACATTGTATATTACATG [CACACA_site6106]”, for which the “gcPBM binding intensity (ln)” value is 10.9.

For “TATATAATTGTCTTCACACACACATATATATATATA [CACACA_site2744]”, the “gcPBM binding intensity (ln)” value worked out at 9.37.

“AAGAATATTATAAACACACACTTTATAAAGAATTAT [CACACA_site4241]”: the “gcPBM binding intensity (ln)” value turned out to be 6.5.

In the case of “TATTTTATTTGTATATTCATTTGTATAATATAAATA [TGCATGCA_negctrl_site267]”, the “gcPBM binding intensity (ln)” value was 6.18.

With “AAAAAAAAAAAAAAAACACACATAAAAATATAATAA [CACACA_site3855]”, the “gcPBM binding intensity (ln)” value was 6.52.

ATTATATATAATATAGTGCATGTAAAAAATAAAACA: the “gcPBM binding intensity (ln)” value was 8.17.

“TATACACATATATACACACACATATATAAATAAATA [CACACA_site7579]”: the “gcPBM binding intensity (ln)” value amounted to 7.09.

As for “TGCACAAAGTTATGCACACACCTAAAATTAATTTTT [CACACA_site7385]”, the “gcPBM binding intensity (ln)” value amounted to 10.5.

“ATTCTTTATATGCATACACACCTAATATAGGGACCT [CACACA_site6830]”: the “gcPBM binding intensity (ln)” value came to 7.78.

As for “GTACATAGGTATAGCACACACAAATGTAGGTATTTT [CACACA_site4049]”, the “gcPBM binding intensity (ln)” value came out at 6.53.

For the sequence “TTATAATATGTATACACACACATATATAGATATATA [CACACA_site7159]”, the “gcPBM binding intensity (ln)” value amounted to 6.81.

As for “AAATGTAATATAAATAGTACATATTAAATAAAATTA [XGTACX_site6917]”, the “gcPBM binding intensity (ln)” value was determined as 5.99.

As to “ATGTGCACATATAAAAGTACACGCACATATATATAT [XGTACX_site1238]”, the “gcPBM binding intensity (ln)” value worked out at 11.

Regarding “TCTATTTTTTATATGGTGCATTGTTCTTATTAATAT [GTGCAC_site9392]”, the “gcPBM binding intensity (ln)” value stood at 9.61.

For “CTTTATTTTTTATACACACACAATATGTATTTATAT [CACACA_site5879]”, the “gcPBM binding intensity (ln)” value stood at 7.34.

On to “AGGAAAAATAATTATTCACACAATAAATATATTTGA [CACACA_site5824]”, for which the “gcPBM binding intensity (ln)” value was 6.34.

Take “AATTAATTTATGTTACGTACATAAGTATTATATTTT [XGTACX_site388]”: the “gcPBM binding intensity (ln)” value stood at 6.42.

Regarding “GTTCAAATTATTATGTGTACTAAAGAATATTTTAAA [XGTACX_site3166]”, the “gcPBM binding intensity (ln)” value was determined as 6.43.

As to “AAATCGTGCACGGACACATGCAGTAGCCGAGAATTA [TGCATGCA_site733]”, the “gcPBM binding intensity (ln)” value was 11.1.

As to “GATGTATTCATACATGCACACGTACATATTTAAATA [CACACA_site9299]”, the “gcPBM binding intensity (ln)” value is 8.03.

With “TAAACCAAAAAAAGTAGTACAAATATTATAAAAAAA [XGTACX_site8497]”, the “gcPBM binding intensity (ln)” value was 6.38.

The values are drawn from the supplement of paper PMC11417369.
